Measured values as given in patent US20260263470A1, “A METHOD FOR THE TREATMENT OF CHRONIC HAND ECZEMA IN PATIENTS WITH MODERATE TO SEVERE CHRONIC HAND ECZEMA” (priority 2023, published 2026).

Test system: adult subjects with moderate to severe chronic hand eczema
Assay: DELTA 2 phase 3 trial: twice-daily delgocitinib cream 20 mg/g vs cream vehicle for 16 weeks

For `C[C@H]1CN(C(=O)CC#N)[C@]12CCN(c1ncnc3[nH]ccc13)C2` [delgocitinib, Delgocitinib], the “patients who reported serious AEs” value was 1.6%, the “rate of AEs assessed as probably or possibly related to study drug” value was 31.29 per 100-patient years of observation [PYO] and the “rate of AEs leading to discontinuation of study drug” value was 1.04 per 100 PYO. The “patients achieving HECSI-75” value (Week 16) was 49.5%, the “patients achieving HECSI-90” value (Week 16) was 31.0% and the “patients achieving ≥4-point improvement in DLQI” value (Week 16) was 72.2%. For the same compound, the “patients achieving IGA-CHE TS (IGA-CHE score of 0 [clear] or 1 [almost clear] with at least a 2-step improvement)” value (Week 16, cream 20 mg/g twice daily) was 29.1%.
